# Test results from the supplement of paper PMC3334620.
# Whole data set: some 33,000 sequences, median “E-score (-0.5 to 0.5)” near -0.056, cut for the highest 2% near 0.38. The list shows a part of the results.
# Molecular target: Stb4 (UniProt P50104)
# Assay: PBM E-score (8-mer binding enrichment) (E-score (-0.5 to 0.5)); higher = stronger / more preferred TF binding; most listed sequences are background and not binding sites
# Details: protein concentration: 200 nM; construct: GST-DNA-binding domain
# Experimental: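 Universal 'all 10-mer' protein binding microarrays (Agilent AMADID 015681) probed with GST-tagged S. cerevisiae TFs (full-length or DBD) made by in vitro transcription/translation (PURExpress), about 100-200 nM. Bound TF was detected with fluorescent anti-GST. Each ungapped 8-mer (which stands for itself and its reverse complement) is scored by the PBM enrichment score (E-score), a modified Wilcoxon-Mann-Whitney statistic from -0.5 to +0.5, computed with the Universal PBM Analysis Suite. Scale: above 0.35 generally sequence-specific binding.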
row,Sequence,PBM E-score
1,GTGTTCTA,-0.0421
2,ATTTGAGA,-0.184
3,AGCAAGCT,-0.288
4,AATCAACC,0.0271
5,AGAAGTGC,-0.122
6,AACCTCGA,-0.0623
7,CTAAGAGC,-0.0722
8,ACTCACCA,-0.126
9,ACGCTGAG,-0.29
10,AAAATACC,0.198
11,AAGACCCC,-0.0126
12,CGAATCAC,0.0979
13,TAATGGAA,-0.017
14,AACCGCGA,0.14
15,AGGGCGAC,-0.11
16,GGGATGAC,0.0991
17,CCAGCTGG,-0.104
18,TCACCGCA,-0.179
19,CGTCATAG,-0.0598
20,GAACATAA,0.0431
21,AGGCCCAC,-0.386
22,AAGCCGAC,0.26
23,AACTTGGA,-0.0187
24,ACTTCCGA,0.479
25,CCACCTCC,-0.00123

row,Sequence,PBM E-score
1,CGTTCAGC,-0.00077
2,ACCGTCAA,-0.077
3,GAATACGC,-0.0987
4,GCAACATA,-0.236
5,AGTGGCGA,-0.0817
6,CGGAAGCC,0.41
7,GTGTCTGA,-0.166
8,GTGTCCTA,-0.0154
9,GCGAAGAA,-0.137
10,ATTCCACG,-0.0548
11,TGACACCA,-0.273
12,TCGGGTAA,0.464
13,CGGCCTGC,0.0532
14,GCCTAAAC,-0.248
15,GGCGGCAA,0.229
16,ATGGCCGA,0.192
17,GCGGAGAC,0.187
18,AGCGCGTG,-0.0215
19,AGTAGTGC,-0.0753
20,ACCGAGAT,0.407
21,TGATTAAA,-0.169
22,ACAGGCTA,-0.197
23,ATTTTAAG,-0.142
24,CATTTTCG,0.109
25,AAGGGCGT,-0.165

row,Sequence,PBM E-score
1,AGGTAACG,-0.0676
2,CACTCTCG,0.106
3,TCGAATAA,-0.136
4,CGCCCAAG,-0.121
5,CTCGGTCC,0.316
6,CCAGACAC,-0.284
7,CATCGCCC,-0.101
8,CTAAACTA,-0.142
9,CGGTTACA,0.275
10,CATTACCC,0.157
11,CGTGATAG,-0.0273
12,GCCCTGCA,-0.112
13,CGGCTGTA,0.306
14,AAGATACC,0.041
15,AACCGAAG,0.362
16,AGACGTAA,-0.149
17,CTCCTGAA,0.0573
18,GGATAGAA,0.193
19,CCTGCGAG,-0.134
20,GCTAGACA,-0.0345
21,TCCAGGGA,-0.351
22,ACAGGGCG,-0.0833
23,CACACTCC,-0.0547
24,AAGGGCGA,-0.0681
25,AGGAGCTG,-0.199

row,Sequence,PBM E-score
1,ATCCCGTG,0.288
2,AACATATC,-0.0288
3,GCTCGGGA,0.464
4,CGGGAGAC,0.295
5,GGCATGGA,0.101
6,ATCCATTG,-0.00149
7,CTGAATGC,0.0226
8,AGCGCCAG,-0.0684
9,ACTCAGGC,-0.193
10,CCTGTCAA,-0.154
11,AGCACCCT,-0.276
12,GTTATGTA,0.0908
13,ATGAACAT,-0.095
14,CAAACTAG,-0.191
15,CAGGATAG,-0.0723
16,AGGTGCCC,-0.0279
17,AGAAAGAG,-0.112
18,ATCTTGGC,-0.063
19,GAACAGTC,-0.127
20,CCCGTTTC,0.15
21,GATACGTA,-0.11
22,ATCTTTCC,0.182
23,ATGTGTGA,-0.0977
24,AAGTAATC,-0.0359
25,AGTGAAAG,-0.0591

row,Sequence,PBM E-score
1,ATTCTCGC,-0.286
2,CAAGGTCA,-0.242
3,CCATGCCA,-0.0678
4,ATTGCGCG,0.116
5,ATCATTTA,0.0923
6,GGAAGCAA,0.199
7,GACACGGC,0.157
8,CATAAGGC,-0.0739
9,ACCTAATC,-0.0248
10,AAAGATAT,0.0432
11,TCGCAGCA,-0.305
12,CCAGATTC,0.0533
13,CACGCCCG,0.141
14,ATGTGGAG,-0.0971
15,GAATGCCC,-0.0783
16,GAAACATC,0.0593
17,AGATTGCC,0.0513
18,CGACAATA,0.0891
19,CATCCGTC,0.308
20,TCGCATAA,-0.0545
21,GTGATACA,-0.171
22,ATTAGCCC,-0.0135
23,ATGCCTGA,-0.22
24,GTCCTTCA,-0.0533
25,CTCCCAAG,-0.114

row,Sequence,PBM E-score
1,AATACAGT,-0.194
2,CGAACGTC,-0.0147
3,AAAGGGTT,-0.235
4,AAGTTTAA,-0.103
5,GACCTGCA,-0.327
6,ACATACAA,-0.0162
7,CTCACGTA,-0.102
8,AAACCCTG,-0.0104
9,CCCCAGCG,-0.225
10,CACTCGGG,0.371
11,TACCCCAA,-0.0488
12,CATACAAA,0.113
13,AACGAGAC,0.0629
14,AAAATTAG,0.0456
15,AGGTGCTG,-0.15
16,ACCTCGTG,-0.0555
17,CTCTAATA,-0.125
18,AACAGCCA,-0.153
19,AAACTGAA,-0.0849
20,ACGACCGG,0.134
21,ATTATGTG,-0.0588
22,AAGGGTTC,-0.14
23,ACTTATTG,-0.215
24,ATGTCGTC,-0.0812
25,ACTTCGCC,-0.0357

row,Sequence,PBM E-score
1,CCTTTACA,-0.126
2,CCACGATA,-0.186
3,AAGGATAC,-0.152
4,CGAGTTCA,0.022
5,GGGCCTAA,-0.219
6,CTGACCAG,-0.12
7,AGCGAGAG,0.0482
8,ATAGACGG,0.16
9,AGTAGAGG,-0.167
10,TAACTGTA,-0.321
11,GCCACGAC,0.00973
12,AGTTACGC,-0.254
13,AATGACCT,-0.0666
14,ATTGGAAC,-0.0214
15,CTCTGTTA,-0.138
16,CCATGGAA,-0.122
17,GTGTGGAA,-0.0632
18,TAGTATCA,0.0271
19,GAAAGGAA,0.0495
20,AGGTGATG,-0.0487
21,CTACATCA,-0.0378
22,GCACTGTA,-0.098
